# In PubChem BioAssay AID2675 (National Center for Advancing Translational Sciences (NCATS), 2010):
# The campaign covered roughly 280,000 compounds. About 100 (0.036%) were called active. Inconclusive means that the source gave no clear call. Such entries were picked first, then a sample of the others. Calls follow the shape of the dose curve; as a rule, active = well fitted inhibition curve with a large enough effect in the signal ratio, with a control signal flat (not every such curve was filed as active); inconclusive = small, poorly fitted or top-dose-only effect, or effect the other way, or a change in a side signal; inactive = no such curve, though single readings can be large or run the other way; the % refers to the signal ratio. A potency beside an inconclusive call is a rough fit, not a confirmed value. A note “side channel” means that the fit belongs to a control or component signal, not to the main read-out.
# Target: Muscleblind-like protein 1 (Homo sapiens) (UniProt Q9NR56)
# Assay: qHTS Assay for Inhibitors of MBNL1-poly(CUG) RNA binding
# Details: TR-FRET MBNL1-His/biotin-(CUG)12 binding, 665/545 ratio; series mostly up to 57.5 µM
# Outline: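 Compounds (final 92 nM to 58 uM) are added to His-tagged MBNL1 and biotin-(CUG)12, then terbium anti-His antibody and streptavidin-XL665 (5 nM final). After 60 min at room temperature, the 665/545 nm ratio is read.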
# Potency is read from the fitted curve at half-maximal effect; tags tell the direction and shape of the fitted curve or compound fluorescence and quenching.
# UniProt Q9NR56, sequence (Q9NR56 whole entry, looked up): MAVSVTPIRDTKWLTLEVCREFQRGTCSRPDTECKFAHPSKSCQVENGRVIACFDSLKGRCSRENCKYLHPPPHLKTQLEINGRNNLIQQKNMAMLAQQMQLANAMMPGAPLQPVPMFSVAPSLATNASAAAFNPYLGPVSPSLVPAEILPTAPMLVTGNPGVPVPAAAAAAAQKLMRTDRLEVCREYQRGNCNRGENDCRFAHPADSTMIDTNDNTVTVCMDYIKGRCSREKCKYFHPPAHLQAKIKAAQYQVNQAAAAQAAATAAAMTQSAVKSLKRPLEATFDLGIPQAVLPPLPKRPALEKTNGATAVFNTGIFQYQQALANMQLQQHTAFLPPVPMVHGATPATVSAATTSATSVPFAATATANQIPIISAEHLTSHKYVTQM
row,Structure (SMILES),Potency
1,Cc1ccnc(N/C=C(\C#N)c2nc(-c3cccc(Br)c3)cs2)c1,"inconclusive: 3.98 µM [quencher, side channel, single point]"
2,COc1ccc2c(c1)CCc1c(C(=O)N3CCCc4ccccc43)noc1-2,"inconclusive: 7.94 µM [quencher, side channel, single point]"
3,O=C(c1ccc([N+](=O)[O-])s1)N1CCc2ccccc21,"inconclusive: 0.708 µM [quencher, side channel, full curve]"
4,O=C(N/N=C/c1ccccc1F)NC12CC3CC(CC(C3)C1)C2,inactive
5,COc1ccc(C2=NN(CN3C(=O)C(=O)c4ccccc43)C(c3ccc(C)cc3)C2)cc1 (configuration not stated),"inconclusive: 15.8 µM [quencher, side channel, partial curve]"
6,Cn1cccc1/C=C1\SC(=S)N(NC(=O)c2ccc(F)cc2)C1=O,"inconclusive: 17.8 µM [quencher, side channel, partial curve]"
7,O=C(NN1C(=O)c2ccccc2NC1c1ccccc1OCc1ccccc1)c1ccncc1 (configuration not stated),"inconclusive: 0.794 µM [quencher, side channel, single point]"
8,COc1ccc(N2CCN(CCNC(=O)c3ccc4nc5ccccc5c(=O)n4c3)CC2)cc1,"inconclusive: 7.08 µM [quencher, partial curve]"
9,CC(=O)N1CCc2c(sc(NC(=O)c3ccc4c(c3)OCCO4)c2C#N)C1,"inconclusive: 25.1 µM [fluorescent, side channel, single point]"
10,Cn1c(N/N=C2\CCCc3ccccc32)nc2c1c(=O)n(Cc1ccc(F)cc1)c(=O)n2C,"inconclusive: 0.0316 µM [fluorescent, side channel, full curve]"
11,O=C(c1cccs1)N1CCc2c([nH]c3ccccc23)C1c1ccccn1 (configuration not stated),inactive
12,Cc1ccc(C(=O)c2oc3nc(C)cc(C)c3c2N)cc1,"inconclusive: 12.6 µM [quencher, side channel, partial curve]"
13,O=[N+]([O-])c1ccc(/C=N/Nc2nc(N3CCCCCC3)nc(N3CCCCCC3)n2)o1,"inconclusive: 7.08 µM [quencher, side channel, single point]"
14,CC(C)(C)CC(=O)Nc1ccc(-c2cn3cccnc3n2)cc1,"inconclusive: 25.1 µM [quencher, side channel, partial curve]"
15,CC(/C=N/n1c(-c2cccnc2)n[nH]c1=S)=C\c1ccccc1,"inconclusive: 20 µM [quencher, side channel, partial curve]"
16,COc1cc(/C=C/C(=O)N2CC(C)OC(C)C2)cc(OC)c1OC (configuration not stated),"inconclusive: 39.8 µM [quencher, side channel, single point]"
17,COc1ccc(NC(C(=O)Nc2cccc(C(C)=O)c2)c2ccccc2)cc1 (configuration not stated),"inconclusive: 39.8 µM [quencher, side channel, single point]"
18,c1ccc(-c2ccccc2-c2nc(-c3ccncc3)no2)cc1,inactive
19,Cc1cc2c3c(c1C)C(=O)C(=O)N3C(C)(C)CC2C (configuration not stated),"inconclusive: 25.1 µM [quencher, side channel, partial curve]"

row,Structure (SMILES),Potency
1,CCC1(C)NC(=O)N(CC(=O)Nc2sc3c(c2C(=O)OC)CCCCC3)C1=O (configuration not stated),inactive
2,O=[N+]([O-])c1ccc2cn[nH]c2c1,"inconclusive: 15.8 µM [quencher, side channel, partial curve]"
3,Cn1cc(CN2CCC(n3nccc3NC(=O)c3ccccc3Cl)CC2)c2ccccc21,inactive
4,Fc1ccc(-c2nn(-c3ccccc3)cc2CNCc2ccccc2)cc1,inactive
5,O=[N+]([O-])c1ccccc1-n1cnc2ccccc21,"inconclusive: 25.1 µM [quencher, side channel, single point]"
6,Cc1csc(NC(=O)CSc2sc3c(O)cc(=O)[nH]c3c2C#N)n1,"inconclusive: 28.2 µM [quencher, single point]"
7,CCN(CC)CCN1C(=O)C(=O)/C(=C(/O)c2ccc(S(=O)(=O)N3CCOCC3)cc2)C1c1ccc(C)cc1 (configuration not stated),"inconclusive: 15.8 µM [quencher, side channel, partial curve]"
8,COC(=O)C1=C(C(=O)OC)SC2(S1)C(C(=O)OC)=C(C(=O)OC)SC1=C2c2cccc(C)c2NC1(C)C,inactive
9,CCCCCn1c(=NC(C)=O)c(C#N)cc2c(=O)n3ccccc3nc21,"inconclusive: 3.98 µM [quencher, side channel, full curve]"
10,COC(=O)c1cc(C(=O)N2CCOCC2)cc([N+](=O)[O-])c1,"inconclusive: 15.8 µM [quencher, partial curve]"
11,COC(=O)c1ccccc1NC(=S)NC(NC(=O)c1ccccc1[N+](=O)[O-])C(Cl)(Cl)Cl (configuration not stated),"inconclusive: 25.1 µM [quencher, side channel, single point]"
12,COc1ccc2nc(NC(=O)C3CCCN(S(=O)(=O)c4c(C)noc4C)C3)sc2c1 (configuration not stated),"inconclusive: 39.8 µM [quencher, side channel, single point]"
13,CCOC(=O)/C(=C\C=C\c1ccccc1)NC(=O)c1ccccc1,"inconclusive: 1.12 µM [quencher, side channel, single point]"
14,Cc1cccc2c1N(CCCOc1ccccc1)C(=O)C2=O,"inconclusive: 20 µM [quencher, side channel, partial curve]"
15,CCOC(=O)C/C(C)=N\Nc1ccc([N+](=O)[O-])cc1[N+](=O)[O-],"inconclusive: 14.1 µM [quencher, partial curve]"
16,COc1cccc(/C=C2\SC(N3CCC(C)CC3)=NC2=O)c1OC,"inconclusive: 17.8 µM [quencher, side channel, partial curve]"
17,Cc1nn(-c2ccc(Cl)cc2Cl)c(=O)c2ccccc12,"inconclusive: 31.6 µM [quencher, side channel, partial curve]"
18,COc1cccc(Oc2nc(N)ncc2[N+](=O)[O-])c1,"inconclusive: 14.1 µM [quencher, side channel, partial curve]"
